About 2,200 (0.71%) of roughly 310,000 compounds showed an effect of 50% or more. The effect is printed as a negative number. Some of the results follow.
Biological target: human ether-à-go-go-related gene (hERG) potassium channel (human, UniProt Q12809)
Assay: primary screen, population patch clamp on CHO cells stably expressing hERG

Sequence of human ether-à-go-go-related gene (hERG) potassium channel (Q12809 whole entry, looked up): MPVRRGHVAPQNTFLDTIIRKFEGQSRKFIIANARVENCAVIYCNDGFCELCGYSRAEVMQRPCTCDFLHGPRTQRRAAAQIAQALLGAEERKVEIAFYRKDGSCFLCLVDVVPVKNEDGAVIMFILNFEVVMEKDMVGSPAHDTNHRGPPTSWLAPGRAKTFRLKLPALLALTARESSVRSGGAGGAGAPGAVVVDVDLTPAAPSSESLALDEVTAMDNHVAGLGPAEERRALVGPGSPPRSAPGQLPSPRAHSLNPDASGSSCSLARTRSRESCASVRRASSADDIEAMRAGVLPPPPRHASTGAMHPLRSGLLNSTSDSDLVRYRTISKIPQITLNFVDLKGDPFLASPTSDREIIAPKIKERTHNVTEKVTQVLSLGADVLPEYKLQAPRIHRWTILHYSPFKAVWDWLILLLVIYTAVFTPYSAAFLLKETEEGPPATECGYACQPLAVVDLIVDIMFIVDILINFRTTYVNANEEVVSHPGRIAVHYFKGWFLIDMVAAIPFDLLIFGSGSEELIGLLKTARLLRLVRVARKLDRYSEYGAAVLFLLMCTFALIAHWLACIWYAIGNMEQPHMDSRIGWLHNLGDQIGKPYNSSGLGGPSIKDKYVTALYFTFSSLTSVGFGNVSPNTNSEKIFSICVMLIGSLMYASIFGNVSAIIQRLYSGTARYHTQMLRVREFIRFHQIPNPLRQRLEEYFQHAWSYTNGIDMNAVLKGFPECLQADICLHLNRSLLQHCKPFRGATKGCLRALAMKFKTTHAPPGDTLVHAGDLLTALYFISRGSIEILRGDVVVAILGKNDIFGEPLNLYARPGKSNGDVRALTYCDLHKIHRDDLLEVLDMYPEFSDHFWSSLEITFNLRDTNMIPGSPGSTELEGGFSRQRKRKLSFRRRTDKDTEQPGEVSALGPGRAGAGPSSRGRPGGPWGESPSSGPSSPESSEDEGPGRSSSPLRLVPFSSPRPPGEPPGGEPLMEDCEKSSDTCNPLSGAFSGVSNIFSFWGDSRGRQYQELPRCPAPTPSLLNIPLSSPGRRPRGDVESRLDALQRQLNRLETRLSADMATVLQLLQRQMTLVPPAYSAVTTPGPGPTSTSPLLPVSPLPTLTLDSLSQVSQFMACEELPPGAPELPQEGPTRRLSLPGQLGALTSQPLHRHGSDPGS

Compound	hERG current change (%, negative = inhibition) at 1uM [%]
O=C(c1ccco1)N1CCN(c2nc(C(F)(F)F)nc3c2nnn3Cc2ccccc2)CC1	-2.44
CCCc1cc(=O)[nH]c(Nc2ccc(N3CCCCC3)cc2)n1	-12.4
Clc1ccccc1N1CCN(Cc2ccc(Br)o2)CC1	7.76
CSc1cc(C)[nH]c(=O)n1	9.91
CS(=O)(=O)NCCCNc1ccc(Cl)cc1[N+](=O)[O-]	3.06
O=C(/C=C/c1ccccc1)NC(=S)Nc1ccccc1C(=O)NC1CCCCC1	-1.37
COc1cc(OC)c(NC(=S)Nc2cccc(C(C)=O)c2)cc1Cl	6.24
O=C(NCc1ccccn1)c1cccc(NS(=O)(=O)c2ccc(Br)cc2)c1	8.69
O=C(NC(=S)Nc1ccccc1N1CCN(C(=O)c2ccccc2)CC1)c1cccs1	11.1
CCOCCCNC(=O)c1ccc(C2SCC(=O)N2Cc2ccccc2)cc1 (centres unmarked)	15
CCCC(=O)OC1CC(C)N(C(=O)c2ccccc2)c2ccc(C)cc21 (centres unmarked)	13.2
CCCCOC(=O)C1CN(c2ccccc2)N=C1C(C)=O (centres unmarked)	12.5
CCCC1(C(=O)OC)NC(c2ccco2)C2C(=O)N(c3ccc(C)cc3)C(=O)C21 (centres unmarked)	16.2
Cc1ccc(Nc2cc(C)nc3ncnn23)c(C)c1	13.4
COc1cccc(-n2nnc3c(=O)n(Cc4ccc(C)cc4)cnc32)c1	15.2
Cc1cc(NC(=O)CCC(=O)N(Cc2ccco2)C2(C(=O)NC3CCCCC3)CCCCC2)no1	9.45
Cc1cc(NC(=O)Cn2nc([N+](=O)[O-])c(Br)c2C)no1	15.4
COc1ccccc1CN1C[C@@H]2C[C@@H](c3ccccc3OC)N3CCC[C@@]23C1=O	12.4
CC(Oc1ccccc1)C(=O)NC1C(=O)N2C1SC(C)(C)C2C(=O)[O-].[K+] (centres unmarked)	8.45
O=C(Nc1ccccc1)Nc1nnc(-c2cccs2)s1	15
CCN(CC)c1ccc(C2NC(=O)NC(C)=C2C(=O)Nc2ccccc2)cc1 (centres unmarked)	17.3
Cl.NC(Cc1ccc2nsnc2c1)C(=O)O (centres unmarked)	3.22
O=C(CN(C(=O)CNC(=O)c1cccs1)c1ccc2c(c1)OCCO2)NC1CCCC1	-3.99

Compound	hERG current change (%, negative = inhibition) at 1uM [%]
Cc1ccccc1C(=O)NC1CCN(Cc2nnnn2C2CCCC2)CC1	6.71
O=C(O)CSc1sc(=S)sc1SCC(=O)O	8.02
COc1cccc(CNC(=O)CCC(=O)N2CCSc3ccccc32)c1OC	12.4
CCOCCOc1nc2c(c(=O)n(C)c(=O)n2C)n1Cc1ccc(C)cc1	0.0056
O=C(C1CCC(=O)N(C2CCCC2)C1)N1CCC(Oc2cccc(F)c2)CC1 (centres unmarked)	7.71
COC(=O)c1[nH]c(C)c(/C(O)=C2\C(=O)C(=O)N(CCN3CCOCC3)C2c2ccco2)c1C (centres unmarked)	14.9
O=C(Nc1cccc(OC(=O)c2ccco2)c1)c1ccco1	10.3
Nn1c(SCc2ccc(C(=O)O)cc2)nnc1-c1ccc(Cl)cc1Cl	9.81
CC(C)N(C(=O)c1nn(C)c2c1CSc1ccccc1-2)C1CCCCC1	17.2
CCC(C)[C@H](NC(=O)[C@@H]1Cc2c([nH]c3ccccc23)C2c3ccccc3C(=O)N21)C(=O)NCC1CCCO1 (some centres unmarked)	-8.22
Cc1ccc(C)c(N2CCN(Cc3nnnn3C3CCCCC3)CC2)c1.Cl	6.62
S=C(Nc1ccc(Cl)cc1Cl)N1CCCC1	14.8
COC(C[C@@H]1O[C@H]1C(=O)COCc1ccccc1)OC	11.9
Cc1ccc(C)c(N2CCN(C(=O)c3cc4ccccn4n3)CC2)c1	12.8
Clc1cccc(/C=N/Nc2nc(Cl)nc3ccccc23)c1	-11.1
CC(=O)c1cccc(N2C(=O)Nc3ccccc3N2O)c1	12.4
O=C(CSc1nnc(Cc2ccccc2)o1)NCCN1C(=O)CSC1=O	14.8
COc1ccc(NC(=O)CSc2nnc(-c3ccccn3)n2N)cc1Cl	4.93
COC(=O)[C@H](CCSC)NC(=O)Nc1ccc(OC)c(Cl)c1	8.86
COc1ccc(C)cc1S(=O)(=O)NC(C)c1cnn(-c2ccccn2)c1C (centres unmarked)	6.27
O=C(COC(=O)c1cc(S(=O)(=O)N2CCOCC2)ccc1F)Nc1c(Cl)cccc1C(F)(F)F	13.1
Cc1cccc(C)c1NC(=O)CNC(=O)c1c(C)nn(-c2ccccc2)c1Cl	5.29
COc1ccccc1-n1c(SCC(=O)NC(C)(C)C)nc(O)cc1=O	6.36

Compound	hERG current change (%, negative = inhibition) at 1uM [%]
CCN(Cc1ccccc1)S(=O)(=O)c1ccc(C(=O)N(CCCN(C)C)c2nc3c(F)cccc3s2)cc1.Cl	-21.2
O=C(COC(=O)c1ccccn1)Nc1nc(-c2cccc([N+](=O)[O-])c2)cs1	7.73
CC(=O)Nc1ccc(NC(=O)CNS(=O)(=O)c2ccc(C)cc2)cc1	6.69
CC(=O)N/C(=C\c1ccccc1)C(=O)NC(C)C(=O)O (centres unmarked)	19.6
COC(=O)c1ccsc1NC(=O)c1ccccc1	4.83
CCOC(=O)CN1C(=O)/C(=C/c2ccccc2Br)Oc2ccccc21	17.9
Cc1ccc(OCCCC(=O)Nc2nncs2)cc1	17.1
CC(=O)COc1cccc2ccc(/C=C/c3ccc(Br)s3)nc12	7.21
N#C/C(=C(/O)c1ccc(Cl)c([N+](=O)[O-])c1)c1nc2ccccc2[nH]1	7.01
Nc1nnc(SCc2ccc([N+](=O)[O-])cc2)s1	-7.81
COCOc1ccc(/C=C/C(=O)c2c(O)cc(OCOC)cc2OCOC)cc1	12.6
O=C(COC(=O)[C@H](Cc1ccccc1)NC(=O)c1ccco1)NCc1ccccc1	4.12
CSc1nc(/C=C2\C=Nc3ccccc32)c(O)n1C	13.2
COc1ccc2c(c1)C(=O)C(=O)N2CCS(=O)(=O)c1ccccc1	13.2
CCCCOC(=O)Nc1ccc(C)c(Cl)c1	13.1
CCOC(=O)c1[nH]cnc1C(=O)Nc1ccc(F)cc1	7.66
Cc1nc(-c2ccc(NC(=O)Cc3ccccc3)cc2)cs1	15
Cc1ccc(S(=O)(=O)N2CCCCC2)cc1NC(=O)c1ccc(Cl)nc1	2.81
Cc1ccc(N2CC(C(=O)N(C)CC(=O)Nc3ccc(Cl)c(C(F)(F)F)c3)CC2=O)cc1 (centres unmarked)	3.57
COc1ccc(COC(=O)NNC(=O)c2ccc(OC)cc2)cc1	-1.5
COC(=O)CCN(c1ccccc1)S(=O)(=O)c1ccc(OC)cc1	6.94
COCCN(C(=O)CNC(=O)c1ccco1)C(C(=O)NC1CCCC1)c1ccccc1F (centres unmarked)	1.58
COc1ccc(OC)c(NC(=O)C23CCC(C)(C(=O)C2)C3(C)C)c1 (centres unmarked)	9.43

Compound	hERG current change (%, negative = inhibition) at 1uM [%]
COc1ccccc1-c1cc(C(=O)Nc2ccccc2SC)no1	-1.22
COc1ccc(F)cc1C(=O)C1CCCN(Cc2cn(C)c3ccccc23)C1 (centres unmarked)	14.2
COc1ccc(NC(=O)CSc2nc3ccccc3c(=O)n2CCNC(C)=O)cc1	-12.8
NC(CS(=O)O)C(=O)O (centres unmarked)	8.7
COC(=O)C1(C)NC(c2ccc(O)cc2)C2C(=O)N(c3ccc(C)cc3)C(=O)C21 (centres unmarked)	12.3
CC(Oc1ccccc1)C(=O)NNS(=O)(=O)c1ccc([N+](=O)[O-])cc1 (centres unmarked)	15.4
Cc1[nH]n(CCC#N)c(=O)c1CC(=O)N1CCN(c2ccccc2)CC1	7.28
C=CCn1c(=O)c2ccc(C(=O)NCc3ccccc3)cc2n(Cc2ccccc2Cl)c1=O	13.8
c1ccc(-c2nc(N3CCOCC3)cc(N3CCOCC3)n2)cc1	9.93
CC1CCC(N2CCN(C(=O)c3ccccc3F)CC2)CC1.O=C(O)C(=O)O (centres unmarked)	3.29
C/C(Cl)=C\Cn1c(N2CCCC2)nc2c1c(=O)n(C)c(=O)n2C	16.3
CN(CC(=O)O/N=C(\N)c1ccccn1)S(=O)(=O)c1ccc(Br)cc1	6.11
O=C(Cn1cnnn1)OCC(=O)c1ccc(Cl)s1	14.8
CC(C)N(C(=S)Nc1cccc(C(F)(F)F)c1)C(C)c1ccccn1 (centres unmarked)	4.87
COC(=O)c1ccc2c(C(C)(C)O)c(C(C)(C)O)[nH]c2c1	17.2
CCOC(=O)Cc1csc(NC(=S)NC(=O)c2ccccc2C)n1	12.9
CCCC(C(=O)Nc1ccc(S(=O)(=O)Nc2ncccn2)cc1)c1ccccc1 (centres unmarked)	11.1
S=C(N/N=C1\C2CN3CCN(C2)CC1(c1ccccc1)C3)Nc1ccccc1	2.85
CCOC(=O)c1cc(-c2nnc(-c3ccc(Cl)cc3)o2)c(C)nc1C	5.38
CCN1CCN(c2ccc(NC(=O)c3cccc(OCc4ccccc4)c3)cc2)CC1	6.49

Reference: paper PMC4336329 (PLoS ONE, 2015)
